Over roughly 33,000 sequences, “E-score (-0.5 to 0.5)” has its median near -0.021; the highest 2% begin near 0.32. Some of the results follow.
Target: T1, Zap1 (UniProt P47043)
T1 sequence: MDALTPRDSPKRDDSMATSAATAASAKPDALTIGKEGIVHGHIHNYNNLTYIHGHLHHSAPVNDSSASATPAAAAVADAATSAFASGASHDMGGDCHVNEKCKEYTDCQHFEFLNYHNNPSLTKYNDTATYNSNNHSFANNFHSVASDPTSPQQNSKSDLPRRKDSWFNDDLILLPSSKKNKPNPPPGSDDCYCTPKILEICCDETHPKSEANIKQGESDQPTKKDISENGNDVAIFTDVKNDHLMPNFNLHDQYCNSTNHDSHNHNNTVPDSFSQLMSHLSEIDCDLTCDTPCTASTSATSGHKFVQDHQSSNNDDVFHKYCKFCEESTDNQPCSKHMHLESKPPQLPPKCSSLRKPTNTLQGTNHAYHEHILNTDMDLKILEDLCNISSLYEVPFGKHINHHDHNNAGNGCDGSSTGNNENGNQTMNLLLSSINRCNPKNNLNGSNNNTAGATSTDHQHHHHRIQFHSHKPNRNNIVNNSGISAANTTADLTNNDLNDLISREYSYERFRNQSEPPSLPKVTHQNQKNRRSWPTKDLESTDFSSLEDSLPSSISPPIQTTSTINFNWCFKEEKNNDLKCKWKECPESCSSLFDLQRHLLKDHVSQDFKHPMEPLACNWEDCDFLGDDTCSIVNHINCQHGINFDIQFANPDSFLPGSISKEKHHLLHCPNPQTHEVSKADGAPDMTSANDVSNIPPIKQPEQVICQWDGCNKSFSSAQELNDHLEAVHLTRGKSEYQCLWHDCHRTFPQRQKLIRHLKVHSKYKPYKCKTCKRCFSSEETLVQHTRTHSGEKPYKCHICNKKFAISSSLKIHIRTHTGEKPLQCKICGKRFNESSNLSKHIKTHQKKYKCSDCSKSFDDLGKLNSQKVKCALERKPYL
Assay: PBM E-score (8-mer binding enrichment) (E-score (-0.5 to 0.5)); higher = stronger / more preferred TF binding; most listed sequences are background and not binding sites
Settings: protein concentration: 200 nM; construct: GST-full length
How it was run: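 Full-length yeast transcription factors or their DNA-binding domains, GST-tagged and expressed with PURExpress, were applied at about 100-200 nM to universal all-10-mer Agilent arrays. These arrays had been made double-stranded by primer extension on fresh or once-stripped slides. Detection used fluorescent anti-GST, normalisation used masliner, and E-scores for ungapped eight-base words pooled with reverse complements came from the Universal PBM Analysis Suite.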

Sequence | PBM E-score
AGCCCACG | -0.185
ACAACAGC | -0.00904
CGAGAGAG | -0.0422
CGAACGAG | -0.164
AACATTCA | -0.0262
GGCGGCCC | -0.25
CCATTAGG | 0.0328
GTCGTTGA | -0.12
AATACGAC | -0.05
AGCGGCTC | -0.122
AATCTGGA | -0.0459
GGCCATAA | 0.252
AATACATC | -0.146
CCGGATAC | -0.0506
ACTTACTA | -0.0941
CTTTCTAA | 0.0907
ATACCCCA | 0.383
ATAATCTG | 0.0985
AGGATCAA | 0.166
ACCCCACC | 0.419
CAAGATCA | 0.116
AAATCCCT | -0.132
CGACTCAG | -0.102
GCAAGGTA | 0.265
CAGCCCCA | -0.0717

Sequence | PBM E-score
CCTATGAA | -0.162
GGATACAA | 0.0969
TGGGGACA | 0.0817
AGACATTA | 0.0601
GAGTCTCA | -0.118
ATTGTGAA | 0.122
CAAAGGCG | -0.279
CCTTAAAC | 0.143
CGGACCGA | -0.0404
ACCTCGAG | 0.349
ACCTCACA | 0.241
CACCGCGG | 0.176
CATTATTA | 0.167
AGCACGGA | -0.261
CCCTGGAA | -0.22
TGGATAAA | 0.0922
ACGTATCC | -0.239
ACACACCC | 0.0972
CGTTGTCC | 0.0918
CCCGGGAC | 0.0471
TCACAAAA | 0.157
CTTGTGTC | 0.0569
CCTGCCGA | -0.136
GTACACTA | -0.0568
TCCATAGA | -0.102

Sequence | PBM E-score
CTATGGCC | -0.0146
CCCGAGGC | -0.0737
CCAACTCG | 0.122
ACGGGTTA | 0.408
ATGCCAAG | -0.0511
TAGTGTGA | 0.0007
AGTCGCGA | 0.113
AGCTATCC | -0.263
ACAAATGG | 0.0107
CTGTACTA | 0.0369
CTACACGC | -0.298
AAGTTACA | 0.169
GATTAAAA | 0.184
CACATGGC | 0.0746
AGAAGACC | 0.187
CGTAACTC | 0.168
AGGTTCAT | 0.181
CATACCAC | 0.124
CCGCGTGC | -0.17
CATACACA | 0.0179
AATTAAAA | 0.162
ACGTTTAC | -0.083
ATTCCCGA | -0.0919
TGTTTTAA | 0.208
CGAATGGA | 0.0883

Sequence | PBM E-score
AATGAATG | 0.0096
CTAAAACA | 0.0791
AGACTCAA | -0.037
CATTAGAG | 0.125
CTTAGAAC | 0.135
CCTCGGTC | -0.0963
ACCCACCA | 0.177
CATCCGGA | -0.17
ATGTCGAA | -0.00735
GGGGCGGA | -0.0553
TACACTCA | 0.0358
AGTAGTCC | -0.177
CTCTAGTA | 0.0128
AATTCTTC | -0.00929
GCTCGTGA | -0.154
ACCACGAT | 0.157
CTCTAACA | 0.0644
AAGTGGCG | -0.0995
CTGAAGGA | -0.0272
CATTCTGG | -0.0234
CATTACAC | 0.0554
GGTTCTAA | 0.231
CGATATGC | -0.0505
CCTCTTTC | -0.127
GTCCACCA | 0.0384

Sequence | PBM E-score
GCGTGAGC | -0.0246
CAGTTTGG | -0.0899
ATCCACCG | -0.125
CCCTTGAA | 0.102
TAAGGAGA | -0.113
ACCGCTAT | 0.137
CCACCTGG | 0.0233
ATTTGTGC | 0.108
ATGTTTCG | 0.118
CGTGGTAA | 0.0908
GCAATGCA | -0.0995
AGAGCCTG | -0.232
ACTGGTTG | 0.188
AGCCGATC | -0.127
CAGATACC | 0.1
CCTATCAG | -0.0469
ATCAACGG | 0.127
AGTCAGAC | 0.00907
GAAAATGC | -0.0932
AGACCGCG | 0.153
ACTCGTAG | -0.174
TCTAAGAA | 0.203
ACAATTAC | 0.0448
GCCAGCGC | -0.361
AACCCCTA | 0.389

Sequence | PBM E-score
ATACTTGA | -0.0537
GCCGGGCA | -0.265
AGAGATAG | -0.057
ACTTTGGG | -0.0129
AAGGTACG | 0.0328
CAGACTGC | -0.211
GTGAATGA | 0.136
ACCCTTTA | 0.415
AGCCCCCC | -0.286
ACGGCAAA | -0.127
CAATATCG | -0.06
ATTATAAG | 0.151
GCTTAGGA | -0.205
GAGGGCAC | -0.195
CGGAGCCA | -0.128
CCATTACA | 0.158
ATCCCGCA | -0.0968
CCTATGCG | 0.0463
AACCGTCG | 0.0382
CATCGTGC | -0.063
AAAAGCGA | -0.0413
GTCCTTGA | 0.113
CTAACTGC | -0.167
CGCAGAGC | -0.298
ATGCCCCC | -0.279

Sequence | PBM E-score
AACCCCCC | -0.236
GCATCTTA | -0.0867
ACCTACAG | 0.181
CTCCGTGA | -0.0721
AATGGTAG | 0.176
GACCACAA | 0.185
GTCGCTGA | 0.0402
CCAATTAC | 0.103
CATCAAGG | 0.0235
GTACTAAC | 0.256
ACATACAG | -0.0104
GAGACTAC | -0.0857
CCGAAAAC | 0.226
AAGACTGA | -0.123
AAATGCTG | 0.0958
AGCGATGG | -0.195
CTCAGTAA | -0.0366
CTGGCCGC | -0.0223
GAATAAGA | -0.0964
CTTGGTGA | 0.0553
AATTAAGC | 0.0649
CCTGAGTA | 0.052

Source: the supplement of paper PMC3334620
